The source of these data is PubChem BioAssay AID1346428 (National Center for Advancing Translational Sciences (NCATS), 2018).

Structures are written as SMILES. Values joined by “and” are separate entries in the source; they are usually repeats but may differ in a detail not shown here. Identical values can stand only once. About 1,200 (2.5%) of roughly 48,000 compounds were called active. About 2% were inconclusive and are not listed.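 The calls were made as follows: active = activation of at least 60% and not above a set upper limit (about 1 call in 100 departs from these limits); inconclusive = activation of 40% to 60%, or above that upper limit; inactive = activation under 40%.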 This is one part of the list.

The target of the test is Probable G-protein coupled receptor 32 (Homo sapiens) (UniProt O75388). The experiment in a line: qHTS for Agonists of Human Resolvin D1 Receptor DRV1. Also: 0% is about no effect. The following applies: CHO-K1 GPR32 beta-arrestin PathHunter luminescence, 90 min; at 76.9 µM; active compounds read high; zero percent set by DMSO-only wells. Put shortly: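 GPR32 activation in stably transfected CHO-K1 cells, detected as beta-arrestin recruitment by enzyme-fragment complementation. Compound exposure: 90 min, 37 °C.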
UniProt O75388, sequence (O75388 whole entry, looked up, the tested form may be a part): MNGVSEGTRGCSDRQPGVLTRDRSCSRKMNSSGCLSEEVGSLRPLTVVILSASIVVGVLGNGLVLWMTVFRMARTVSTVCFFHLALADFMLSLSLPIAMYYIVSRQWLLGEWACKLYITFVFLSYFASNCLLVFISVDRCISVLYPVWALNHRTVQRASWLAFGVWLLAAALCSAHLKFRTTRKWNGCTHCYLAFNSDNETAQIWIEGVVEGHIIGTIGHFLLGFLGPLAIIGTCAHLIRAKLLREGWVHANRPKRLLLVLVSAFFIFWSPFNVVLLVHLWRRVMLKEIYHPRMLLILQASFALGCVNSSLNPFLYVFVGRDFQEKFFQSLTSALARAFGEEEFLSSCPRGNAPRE
In general terms: qHTS replaces the single test concentration by a dilution series.
`CCOc1ccccc1-n1nnc(S(=O)(=O)c2ccc(C)cc2)c1N`: the activation was inactive: 19.1%.
As for `Cc1ccc(NC(=O)CSc2nc(-c3ccco3)cc(C(F)(F)F)n2)cc1C`, the activation is inactive: -7.16%.
On to `O=C(COCc1cc(-c2ccco2)on1)Nc1cccc(Cl)c1Cl`, for which the activation was inactive: -21.6%.
The result for `CCOC(=O)c1cc(-c2ccc(OC)cc2)nn1Cc1ccccc1` reads inactive: -4.17%; that for `Cc1ccc(CSc2nc3c(c(=O)[nH]2)C(c2cccc(F)c2F)CC(=O)N3)cc1` (centres undefined), inactive: -1.76%; that for `Cc1ccc(C)c(Nc2nnc(-c3ccc(C)c(S(=O)(=O)N4CCCCC4)c3)c3ccccc23)c1`, inactive: 7.25%.
The result for `COc1ccc(N2CCN(C(=O)c3nn(-c4ccc(C)cc4)c(=O)n(C)c3=O)CC2)cc1` reads inactive: -17.6%; that for `COc1cc2ncc3c(-c4ccccc4)nn(-c4ccc(C)cc4)c3c2cc1OC`, inactive: 6.39%.
The result for `CC(C)c1ccc(NC(=O)C(Cc2ccccc2)NS(=O)(=O)c2ccc3c(c2)CCC(=O)N3)cc1` (centres undefined) reads inactive: -8.3%; that for `COc1cccc(CNC(=O)CN(C)S(=O)(=O)c2ccc3c(c2)c(=O)n(C)c(=O)n3C)c1`, inactive: -2.9%.
For the compound `Cn1nnnc1SCCNCc1ccccc1Cl`, the activation was inactive: -0.0677%.
The result for `COc1ccc(NC(=O)c2sc3nc[nH]c(=O)c3c2C)cc1OC` reads inactive: -4.59%.
The result for `Cc1ccc(OCC(=O)Nc2ccc3nc(SCC(=O)N(C)c4ccccc4)sc3c2)cc1` reads inactive: -13.6%.
`N#C/C(=C\c1ccc(-c2ccc(C(=O)O)cc2)o1)c1nc2ccccc2[nH]1`: the activation was inactive: 7.95%.
`COc1ccc(Cl)cc1NC(=O)Cn1cc(S(=O)(=O)Cc2cccc(Cl)c2)c2ccccc21`: the activation is inactive: -5.35%.
In the case of `CCc1ccccc1Nc1nn2c(=O)c3ccc(C(=O)NCc4ccccc4Cl)cc3nc2s1` it was inactive: -8.93%; in that of `CCOc1ccc(CCNC(=O)c2ccc(CS(=O)Cc3ccc(Cl)cc3)o2)cc1` (centres undefined), inactive: -7.32%; in that of `Cn1c(=O)oc2cc(S(=O)(=O)N3CCC(C(=O)N4CCN(c5cccc(Cl)c5)CC4)CC3)ccc21`, inactive: 17.9%.
The result for `CC(C)=CCC/C(C)=C/CO` reads inactive: 4.55%.
For `Cc1ccc(Cn2c(C)c(CNCc3ccc(OC(C)C)cc3)c(C(=O)O)c2C)cc1`, the activation was active: 85.6%.
The result for `CCCCOc1ccc(C(=O)N(Cc2nc(-c3ccc(Cl)cc3)no2)C(C)C)cc1` reads inactive: -21.7%.
On to `CC(=O)N1CCc2cc(Br)cc(S(=O)(=O)CCC(=O)NCCc3ccc(Cl)cc3)c21`, for which the activation is inactive: 8.38%.
The result for `CN1CCc2c(sc3c2C(=O)NC(c2ccc(OC(=O)c4ccc(Cl)cc4)cc2)N3)C1` (centres undefined) reads inactive: 32.9%; that for `CNC(=O)c1ccc(NC(=O)COc2ccc(-c3nn(C)c(=O)c4ccccc34)cc2)cc1`, inactive: 23.5%; that for `CCCCN(C)C(=O)Cn1cnc2sc(C)c(S(=O)(=O)N3CCN(c4ccccc4OC)CC3)c2c1=O`, inactive: -2.4%.
In the case of `CCn1ccnc1CC1COc2ccccc2O1` (centres undefined) it was inactive: 14.4% and inactive: -8.31%; in that of `O=C1c2oc3ccccc3c(=O)c2C(c2cccc(Br)c2)N1c1ccccn1` (centres undefined), inactive: 2.14%; in that of `Cc1ccccc1NC(=O)Nc1cccs1`, inactive: -9.41%.
`Cc1ccc(OCC(=O)N(Cc2sccc2C)C2CCS(=O)(=O)C2)cc1` (centres undefined): the activation was inactive: -22.2%.
The result for `Cc1cc(=O)n2nc(N3CCC(C(=O)NCc4ccc(Cl)cc4)CC3)sc2n1` reads inactive: -4.98%; that for `Cc1ccc2onc(CC(=O)N3CCN(c4cccc(C)c4C)CC3)c2c1`, inactive: -14.7%; that for `CCOC(=O)c1[nH]c2ccccc2c1NC(=O)c1cc(OCC)c(OCC)c(OCC)c1`, inactive: 17.9%.
In the case of `Clc1ccc(Nc2nc(-c3ccccc3)c3cc(Cl)ccc3n2)cc1` it was inactive: -4%.
`COc1ccc(-c2noc(CSc3nnc(-c4ccncc4)n3-c3ccc(C)c(C)c3)n2)cc1`: the activation is inactive: -27.8%.
As to `CCOc1ccc(NC(=O)Cn2c(CCC(=O)O)ccc2-c2ccc(C)cc2)cc1`, the activation is inactive: -12.3%.
As for `Cc1ccccc1C(=O)Nc1cccc(C(=O)OCc2cc(=O)n3nc(C4CC4)sc3n2)c1`, the activation is inactive: -6.21%.
On to `COc1cc(NC(=O)CC(C)S(=O)(=O)c2cc3c4c(c2)CCN4C(=O)CC3)cc(OC)c1` (centres undefined), for which the activation was inactive: 6.23%.
With `COc1ccc(Cn2c(CO)cnc2SCC(=O)NCc2ccco2)cc1`, the activation is inactive: 19.7%.
With `Cc1ccc(C)c(CN2C(=O)c3ccccc3Sc3ccc(C(=O)NCc4ccc5c(c4)OCO5)cc32)c1`, the activation is inactive: -20.3%.
`Cc1ccc([N+](=O)[O-])cc1S(=O)(=O)N1CCn2cccc2C1c1ccc(F)c(F)c1` (centres undefined): the activation was inactive: -15.5%.
The result for `COc1ccc(NC(=O)c2c(NC(=O)c3cccc(C)c3)sc3c2CCCC3)cc1` reads inactive: 18%; that for `COc1cc2nc(SCC(=O)Nc3cccc(C)c3)n3nc(-c4ccccc4)nc3c2cc1OC`, inactive: 8.24%.
In the case of `COc1ccc(-c2nc(Cn3c(SCc4ccc(F)cc4)nc4cccnc43)c(C)o2)cc1` it was inactive: -17%; in that of `CC(=O)c1cccc(NC(=O)c2ccc3nc(C(C)C)oc3c2)c1`, inactive: -3.56%.
As for `O=C(CSc1nc2sc3c(c2c(=O)[nH]1)CCCC3)Nc1ccccc1F`, the activation is inactive: 3.33%.
In the case of `CCOc1ccc(-c2nnc(SCC(=O)Nc3cccc(Cl)c3C)o2)cc1` it was inactive: -19.4%; in that of `CCCNC(=O)CSc1cn(CC(=O)N2CCCCCC2)c2ccccc12`, inactive: -24.5%.
Consider `Cc1ccc2oc(C(=O)Nc3ccc(S(=O)(=O)Nc4nc(C)cc(C)n4)cc3)cc(=O)c2c1`, for which the activation is inactive: -5.51%.
In the case of `Cc1ccc2nc(CN3CCN(S(=O)(=O)c4ccc(F)cc4)CC3)oc2c1` it was inactive: 3.85%; in that of `CC(C)Oc1ccc(CNS(=O)(=O)c2ccc(-c3cc(C(F)(F)F)on3)s2)cc1`, inactive: -1.86%; in that of `Cc1ccc(NC(=O)CCn2cnc3onc(-c4ccc(F)cc4)c3c2=O)c(Br)c1`, inactive: 9.61%.
In the case of `COc1ccc(CCNC(=O)CCn2c(=O)c3ccccc3n(Cc3ccccc3C)c2=O)cc1OC` it was inactive: -3.39%; in that of `Cc1c(-c2nc(-c3ccc4c(c3)OCO4)no2)nnn1-c1cccc(C(F)(F)F)c1`, inactive: -12.3%; in that of `Cc1ccc(Cl)cc1N1CCN(C(=O)COCc2cc(-c3ccc4c(c3)OCO4)on2)CC1`, inactive: -12.8%.
`Cc1cc2c(cc1S(=O)(=O)Nc1cccc(Cl)c1C)OCCN2C`: the activation is inactive: -18%.
With `COc1ccc(-c2nc3ccccc3o2)cc1NC(=O)c1ccc(-c2cccc(Cl)c2C)o1`, the activation was inactive: 23.4%.
Turning to `Cc1ccc2ccc(Cl)cc2n1`, the activation is inactive: 0.0415%.
With `O=c1cc(O)c(Cl)c[nH]1`, the activation is inactive: -4.47%.
Consider `Cc1ccc(CNC(=O)C2CCCN(Cc3nc(-c4cccc(C)c4)oc3C)C2)cc1` (centres undefined), for which the activation was inactive: -6.44%.
In the case of `c1ccc(OCc2ccc(CCCN3CCOCC3)cc2)cc1` it was inactive: 39.7%; in that of `COc1cccc(NC(=O)C2CCN(c3nnc(-n4c(C)ccc4C)s3)CC2)c1`, inactive: -18.2%; in that of `CC1=C(C(=O)Nc2cccc(C(F)(F)F)c2)C2(CCN(C(C)C)CC2)OC1=O`, inactive: 0%.
The result for `CCN(CC)CCNC(=O)c1ccc2c(=O)n3nc(Nc4ccccc4)sc3nc2c1` reads inactive: -2.91%; that for `O=C(CCCn1c(=O)c2ccccc2n(Cc2cccc(F)c2)c1=O)NCc1ccccc1Cl`, inactive: -5.14%; that for `O=C(Nc1ccc(S(=O)(=O)N(Cc2ccccc2)c2ccccc2)cc1)c1ccc(F)cc1`, inactive: -5.35%.
For `CCCCNC(=O)c1sc2ncccc2c1-n1cccc1`, the activation was inactive: -19%.
As to `O=C(CCc1ccccc1)N1CCc2c([nH]c3ccccc23)C1c1ccc(F)cc1` (centres undefined), the activation is inactive: -39.3%.
In the case of `O=C(NCCCc1nc2ccccc2n1Cc1ccccc1F)c1ccco1`, the activation was inactive: -1.18%.
As to `CCOC(=O)Cn1c(=O)n(-c2ccc(Cl)cc2)c2nc(-c3ccc(Cl)cc3)nc(C(N)=O)c21`, the activation was inactive: -8.32%.
The result for `Cc1cc2oc(C(=O)Nc3c(C)n(C)n(-c4ccccc4)c3=O)cc(=O)c2cc1C` reads inactive: -5.92%; that for `COc1ccc(-c2cc(C(=O)Nc3c(C)n(C)n(-c4ccccc4)c3=O)no2)cc1`, inactive: 9.79%; that for `COC(=O)C(CCSC)NC(=O)c1cc2c(n(-c3ccccc3)c1=O)CC(C)(C)CC2=O` (centres undefined), inactive: 14%.
In the case of `CN1C(=O)c2ccccc2Sc2ccc(NC(=O)c3ccc(C#N)cc3)cc21` it was inactive: 26.7%; in that of `Cc1cccc(NS(=O)(=O)c2ccc3c(c2)CCCN3C(=O)C2CCC2)c1C`, inactive: 6.13%.
The result for `Cc1nn(C(C)(C)C)c(OC(=O)c2c(F)cccc2F)c1Sc1ccccc1` reads inactive: -2.3%; that for `COc1ccc(NC(=O)CN(c2ccc(C)cc2)S(=O)(=O)c2cccs2)cc1`, inactive: 8.7%; that for `COc1cc(CNc2ccc3[nH]c(=O)[nH]c3c2)cc(Cl)c1OCc1ccc(F)cc1`, inactive: -1.6%.
With `Cc1ccc2c(=O)cc(C(=O)Nc3nc4ccc(Cl)cc4s3)oc2c1`, the activation was inactive: -8.28%.
In the case of `Cc1cccc(C(=O)Nc2ccccc2OCc2cc(=O)n3c(C)csc3n2)c1` it was inactive: 11%.
For `O=C(Nc1ccc(C(=O)OCc2cc(=O)n3c4c(sc3n2)CCCC4)cc1)c1cccc(F)c1`, the activation is inactive: -16.1%.
For the compound `Cc1csc2nc(-c3cccc(NC(=O)c4c(F)cccc4F)c3)cn12`, the activation was inactive: -2.85%.
On to `O=C(Cn1cc(S(=O)(=O)Cc2ccccc2F)c2ccccc21)NCc1ccccc1`, for which the activation was inactive: 0.932%.
In the case of `COc1ccc(CCNc2nc3c(c(=O)n(C)c(=O)n3C)n2Cc2ccccc2Cl)cc1OC` it was inactive: -7.5%; in that of `O=C(NCCc1ccccc1)c1cc(-c2ccc(Cl)c(Cl)c2)on1`, inactive: -20.2%.
